In patent US7101894B2 (priority 2001, dated 2006) one finds IC50 data, which are given here for one compound.

Each structure is given as a SMILES string.

The assay addresses hUS28 (Human cytomegalovirus, UniProt P69332). Conditions: read-out: hUS28 IC50; inhibition of 125I-fractalkine binding; hUS28 transfected murine cells; 2–4 hours at 4° C. On the procedure:
Radioligand binding assays were carried our in the following manner. The target cells typically used in these assays were either Rhesus dermal fibroblasts which had been infected with Rhesus CMV for 2–4 days, or hUS28 transfected murine cells. Lots of cells verified for fractalkine binding were frozen until use. For the assay, cells were thawed, washed, and resuspended in assay buffer(20 mM HEPES pH 7.1, 140 mM NaCl, 1 mM CaCl2, 5 mM MgCl2, and with 0.2% bovine serum albumin) to a concentration of from 4×10^5 to 5×10^6 cells/ml. Compounds were prepared as 10×solutions in 20% DMSO, and 0.02 ml was placed in assay plates. Next 0.09 ml of cells was added to the assay plates containing the compounds. Lastly 0.09 ml of ^125I-fractalkine diluted in assay buffer (final concentration ˜50 pM, with 20,000–50,000 cpm per well) was added, the plates sealed and incubated for 2–4 hours at 4° C. on a shaker platform. The assay plates were harvested using Packard GF/B filter plates, pre-soaked in 0.3% polyethyleneimmine solution, on a Packard vacuum cell harvester. Scintillation fluid was added to all wells, the plates were sealed and counted in a Top Count scintillation counter. Control wells containing either diluent only (for total counts) or excess unlabeled fractalkine (1 μg/ml, for non-specific binding) were used to calculate the percent of total inhibition. […]

Chain of UniProt P69332 (P69332 whole entry): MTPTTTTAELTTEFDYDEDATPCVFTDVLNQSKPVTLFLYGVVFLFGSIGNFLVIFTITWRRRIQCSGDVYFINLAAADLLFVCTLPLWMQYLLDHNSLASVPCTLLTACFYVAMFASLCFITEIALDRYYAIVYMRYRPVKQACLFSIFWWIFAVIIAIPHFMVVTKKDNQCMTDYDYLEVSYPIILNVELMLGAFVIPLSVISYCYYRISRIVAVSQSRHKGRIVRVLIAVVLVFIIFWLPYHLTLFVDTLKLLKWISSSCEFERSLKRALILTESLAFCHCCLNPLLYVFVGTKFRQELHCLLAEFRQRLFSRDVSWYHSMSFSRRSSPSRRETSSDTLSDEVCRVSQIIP

Regarding `CC[C@H]1C[N@]2CC[C@H]1C[C@H]2[C@H](OC(=O)Cc1cc(C)no1)c1ccnc2ccccc12` [Compound 164], the IC50 lay within 1 to 10 µM.

The IC50 is the concentration that gives 50% inhibition.
